Where “and” joins values, the source holds several entries; their conditions need not be identical. Identical values can stand only once. The campaign covered roughly 150,000 compounds. About 180 (0.12%) were called active. This list was built around the results that the source calls inconclusive (neither active nor inactive); the mix of calls is not that of the screen. Calls follow the shape of the dose curve; as a rule, active = well fitted cell-killing curve with a large enough effect; inconclusive = small, poorly fitted or top-dose-only effect, or effect the other way; inactive = flat fitted curve, though single readings scatter. Potencies beside an inconclusive call are fits to weak or partial responses and may not hold up.
Test: GF-AFC viability counterscreen for inhibitors of alpha-synuclein gene (SNCA) expression; also: nearly all actives have a fitted effect of over 30% in size;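 as to activity change, negative = cytotoxicity: 0% = DMSO-treated cells and -100% = medium-only wells without cells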
Settings: HEK-293-SNCA-luc viability, GF-AFC fluorescence, 24 h; activity change, negative = cytotoxicity: at 57.1 µM (top of the series) unless noted
Procedure, shortened: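 Cytotoxicity counterscreen: after 24 h compound treatment of genome-edited SNCA-luciferase HEK-293 cells, live-cell protease substrate GF-AFC read by fluorescence after 30 min; activity scaled between DMSO (0%) and medium-only (-100%), curves Hill-fitted.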
Potency is read from the fitted curve at half-maximal effect; tags tell the direction and shape of the fitted curve.

| SMILES | Potency | activity change, negative = cytotoxicity |
| --- | --- | --- |
| COCCn1c(=O)c(-c2ccccc2)nc2cnc(Nc3ccccc3)nc21 | inconclusive: 14.1 µM [rising, partial curve] |  |
| Cc1cc(COc2ccccc2)oc1C(=O)N1C[C@@H]2CCN(C)[C@@H]2C1 | inactive |  |
| COc1cc2nc(-c3ccc(N4CCN(C)CC4)cc3)nc(NCCN3CCOCC3)c2cc1OC | inconclusive: 0.429 µM [cytotoxic, full curve, poor fit] |  |
| Cc1ccc(Nc2ccnc(N3CCC(C(=O)NCC(F)F)CC3)n2)cc1 |  | inactive: 7.17% [at 12.5 µM] |
| COc1ccc(CC(=O)NCC(=O)N2CCN(c3ccccn3)CC2)cc1 | inactive |  |
| CC#CC(=O)Nc1ccc2ncnc(Nc3cccc(Br)c3)c2c1 | inconclusive: 9.47 µM [cytotoxic, partial curve] |  |
| COc1ccccc1N1CCN(C(=O)Cn2c(N3CCc4ccccc4C3)nc(C)cc2=O)CC1 | inconclusive: 20 µM [cytotoxic, single point] |  |
| CN(C)Cc1ccc(C(=O)N[C@@H]2COCC[C@@H]2OCC(=O)O)o1 | inconclusive: 5.62 µM [rising, single point] |  |
| Cc1ccc(-c2cc3c(=O)n(CCNC(=O)c4cc(F)ccc4F)ccn3n2)c(C)c1 | inactive |  |
| CCOC(=O)c1ccc(NC(=O)c2cc3sccc3n2Cc2ccc(Cl)cc2)cc1 | inconclusive: 4.47 µM [cytotoxic, partial curve, poor fit] |  |
| O=C(Nc1cccc(C(F)(F)F)c1)N[C@H]1[C@H](O)[C@@H](Oc2ccccc2)[C@@H]2OC[C@H]1O2 | inconclusive: 56.2 µM [cytotoxic, single point] |  |
| OC[C@@H]1O[C@H](CN(Cc2cccc(Cl)c2)Cc2cccc(Cl)c2)C(N2CCOCC2)[C@@H]1O (some centres not stated) | inactive |  |
| COc1cccc(C(=O)NCC(c2ccc3c(c2)OCO3)N2CCOCC2)c1 (configuration not stated) | inconclusive: 7.94 µM [cytotoxic, partial curve, poor fit] |  |
| O=C(Nc1cccc(C(F)(F)F)c1)O[C@@H]1CO[C@H]2[C@@H]1OC[C@@H]2n1cc(-c2ccccn2)nn1 | inconclusive: 39.8 µM [cytotoxic, single point] |  |
| Cc1ccc2c(c1)nc1n2[C@@H](CNCc2ccccc2)COC1 | inactive |  |
| O=C(NCC(F)F)C1CCCN(c2nccc(Nc3ccccc3F)n2)C1 (configuration not stated) |  | inactive: -2.19% [at 12.5 µM] |
| CCc1ccccc1NC(=O)c1ccc2nc(C(C)C)oc2c1 | inactive |  |
| CCOC(=O)N1CCC(N[C@@H]2CC[C@@H]2NC(=O)c2cnc3cccnn23)CC1 | inactive |  |
| Cn1cccc1C(=O)N1CC[C@H](NC(=O)NC2CCCCC2)[C@H]1C(=O)N1CCC[C@@H]1C(N)=O | inactive |  |
| O=C1COc2ccc(-c3ccc(F)cc3)nc2CN1Cc1ccccc1F | inactive |  |
| CC(C)n1cnc2c(-c3cnc(N)nc3)nc(N3CCOCC3)nc21 | inconclusive: 1.64 µM [cytotoxic, full curve, poor fit] |  |

| SMILES | Potency | activity change, negative = cytotoxicity |
| --- | --- | --- |
| CNc1ccc(OC2CCN(C(=O)CCc3nc4ccccc4[nH]3)C2)nc1 (configuration not stated) | inactive |  |
| Cc1nn(C)c(C)c1-c1ccnc(NCC2COc3ccccc3O2)n1 (configuration not stated) | inactive |  |
| O=C(O)Cn1ccc2cc(OCc3cccc(-c4ccccc4O)c3)cnc21 | inactive |  |
| CSc1cccc(NC(=O)Cn2c(N3CCC(C)CC3)nc(C)cc2=O)c1 | inconclusive: 39.8 µM [cytotoxic, partial curve, poor fit] |  |
| COc1ccc(-c2nc(-c3c(C)noc3C)cc3cc(C(C)C)oc23)cn1 | inactive |  |
| CCCCn1cc(S(=O)(=O)c2ccc(C)c(C)c2)c(=O)c2cc(F)c(N3CCN(C)CC3)cc21 | inconclusive: 0.631 µM [cytotoxic, full curve, poor fit] |  |
| N#Cc1ccnc(Nc2cc(C3CCN(C4COC4)CC3)cc(N3CCC(F)(F)C3)n2)c1 | inconclusive: 17.1 µM [cytotoxic, partial curve, poor fit] |  |
| CCc1nnc(NC(=O)c2nc(S(=O)(=O)Cc3cccc(C)c3)ncc2Cl)s1 | active: 20 µM |  |
| CN1CCN(c2ncc3nc(-c4cc(F)cc(F)c4)c(=O)n(CCc4ccccc4)c3n2)CC1 | inconclusive: 15.8 µM [rising, partial curve, poor fit] |  |
| CNC(=O)N1CCC(C2CCN(C(=O)c3ccc(Br)cc3)C2)CC1 (configuration not stated) | inconclusive: 1.41 µM [cytotoxic, partial curve, poor fit] |  |
| O=C(NCCN1CCCCC1)c1ccc(-c2ccc(N3CCCCC3)nc2)cc1 | inconclusive: 20 µM [cytotoxic, single point] |  |
| Cc1ccc(NC(=O)Cn2nc(C)c3nn(-c4ccc(Cl)cc4)c(C)c3c2=O)cc1C | inconclusive: 1.12 µM [cytotoxic, full curve] |  |
| COc1ccc(Cn2c(C(=O)O)c(CNCc3cccc(OC)c3)c3ccc(C)cc32)cc1 | inconclusive: 12.6 µM [cytotoxic, partial curve] |  |
| c1cncc(-c2cnc3n[nH]c(-c4ccc5c(c4)OCO5)c3n2)c1 | inconclusive: 35.5 µM [cytotoxic, partial curve, poor fit] |  |
| CC(=O)O[C@@H]1CC2C(C)(C)C(=O)C=C[C@]2(C)C2CC[C@@]3(C)[C@H](c4ccoc4)OC(=O)[C@H]4O[C@]43[C@@]21C (some centres not stated) | inconclusive: 10.3 µM [cytotoxic, single point] |  |
| Cc1ccc2c(c1)c1c(c(=O)n(-c3cccc(Cl)c3)c(=O)n1CC(=O)N1CCCC1)n2C | inconclusive: 7.08 µM [cytotoxic, partial curve, poor fit] |  |
| CCN(Cc1ccccc1)C(=O)C1CCN(c2ncnc3c2nc2n3CCCCC2)CC1 | inconclusive: 14.1 µM [cytotoxic, partial curve, poor fit] |  |
| COc1ccc(C2=NOC3(CCCN(C(=O)C4CCCCC4)C3)C2)cc1 (configuration not stated) | inconclusive: 7.94 µM [cytotoxic, partial curve, poor fit] |  |
| Cc1ccc(-c2cc3c(=O)n(CCNC(=O)c4ccc5ccccc5n4)ccn3n2)c(C)c1 | inconclusive: 39.8 µM [cytotoxic, single point] |  |
| Cc1cccc(N(C)C(=O)CN2C(=O)COc3ccc(S(=O)(=O)N4CCCCCC4)cc32)c1 | inconclusive: 28.2 µM [cytotoxic, single point] |  |
| Cc1nn(-c2ccc(F)cc2)c(C)c1[C@@H]1C=C[C@@H](NC(=O)NC(C)C)C1 | inactive |  |

| SMILES | Potency | activity change, negative = cytotoxicity |
| --- | --- | --- |
| O=C(CCCCCn1c(=O)[nH]c2ccccc2c1=O)NCc1cccc(Cl)c1 | inconclusive: 28.2 µM [cytotoxic, single point] |  |
| CCOCCCNC(=O)C(c1ccccc1)N(Cc1cccs1)C(=O)c1ccc(NC(C)=O)cc1 (configuration not stated) | inconclusive: 25.1 µM [cytotoxic, single point] |  |
| CC(=O)Oc1c(-c2ccc(NC(=O)c3ccc4c(c3)OCO4)cc2)c(C2CC2)nn1-c1cccc(F)c1 | inactive |  |
| COc1ccc(C(=O)NCCc2sc(-c3cccc(F)c3)nc2C)cc1 | inconclusive: 28.2 µM [cytotoxic, single point] |  |
| Cc1cn2nc(C(=O)Nc3ccc(Cl)cc3C)cc2c(N(C)Cc2ccccc2)n1 | inactive |  |
| CCN1C(=O)CCN(C(=O)NCc2ccccc2)CC12CCOCC2 | inconclusive: 35.5 µM [cytotoxic, single point] |  |
| O=C1COCC2(CN(c3ccccc3)C2)CN1c1ccc(OC(F)(F)F)cc1 | inactive |  |
| COc1ccc(Nc2ccnc(N3CCN([S+](=O)([O-])c4cccc(C(F)(F)F)c4)CC3)n2)cc1 | inconclusive: 22.4 µM [cytotoxic, partial curve, poor fit] |  |
| COc1ncc2nc(C)c(=O)n(Cc3cccs3)c2n1 | inconclusive: 20 µM [cytotoxic, partial curve] |  |
| CNC(=O)c1ccccc1Nc1nc(Nc2ccc(N3CCOCC3)cc2OC)ncc1Cl | inconclusive: 681 nM [cytotoxic, full curve, poor fit] and inconclusive: 18.9 µM [cytotoxic, partial curve, poor fit] |  |
| CCOC(=O)c1cc2c(=O)n3ccccc3nc2n(CC2CCCO2)c1=NC(=O)c1cccc(C(F)(F)F)c1 (configuration not stated) | inconclusive: 10 µM [rising, partial curve, poor fit] |  |
| Cc1cccc(-c2cccc(CN3CCC(NC(=O)c4ccc(Cl)nc4)CC3)c2)c1 | inactive |  |
| CCNc1ncc2nc(-c3cn(C)c4ccccc34)c(=O)n(Cc3ccc(F)cc3)c2n1 | inconclusive: 15.8 µM [rising, partial curve, poor fit] |  |
| Cc1ccc(NC(=O)Cn2c(C)cc3nc4n(c(=O)c32)CCCCC4)cc1Cl | inconclusive: 35.5 µM [cytotoxic, partial curve, poor fit] |  |
| COc1ccc(C(=O)N[C@@H]2CCC[C@@H]2C(=O)NC2CCCC2)cc1 | inconclusive: 0.708 µM [cytotoxic, full curve, poor fit] |  |
| COc1cc(/C=C/c2nc(C#N)c(NC3CCCCC3)o2)cc(OC)c1OC | inconclusive: 28.2 µM [rising, single point] |  |
| COc1cccc(CNC(=O)C2CCCN(c3nccc(Nc4ccccc4OC)n3)C2)c1 (configuration not stated) |  | inactive: -0.24% [at 12.5 µM] |
| O=C1CC2(CCN(C(=O)c3cnn4ccccc34)CC2)CN1Cc1ccccc1 | inactive |  |
| Cc1ccc(C(=O)N(CC(C)C)CC2CN(C(=O)c3ccc(Cl)c(Cl)c3)CCO2)cc1 (configuration not stated) | inconclusive: 3.55 µM [cytotoxic, single point] |  |
| CCOC(=O)C1CCN(C(=O)C2CCc3nnc(CNC(=O)NC(C)(C)C)n32)CC1 (configuration not stated) | inactive |  |

From PubChem BioAssay AID1671193 (National Center for Advancing Translational Sciences (NCATS), 2021)
